In all, about 33,000 sequences were measured (“E-score (-0.5 to 0.5)”: median about -0.036, highest 2% from about 0.37 on). This is one part of the list.
What follows are sequences tested against T1, Yer064c (UniProt P40041) (assay: PBM E-score (8-mer binding enrichment) (E-score (-0.5 to 0.5)); higher = stronger / more preferred TF binding; most listed sequences are background and not binding sites). Settings: protein concentration: 200 nM; construct: GST-full length.
T1 sequence: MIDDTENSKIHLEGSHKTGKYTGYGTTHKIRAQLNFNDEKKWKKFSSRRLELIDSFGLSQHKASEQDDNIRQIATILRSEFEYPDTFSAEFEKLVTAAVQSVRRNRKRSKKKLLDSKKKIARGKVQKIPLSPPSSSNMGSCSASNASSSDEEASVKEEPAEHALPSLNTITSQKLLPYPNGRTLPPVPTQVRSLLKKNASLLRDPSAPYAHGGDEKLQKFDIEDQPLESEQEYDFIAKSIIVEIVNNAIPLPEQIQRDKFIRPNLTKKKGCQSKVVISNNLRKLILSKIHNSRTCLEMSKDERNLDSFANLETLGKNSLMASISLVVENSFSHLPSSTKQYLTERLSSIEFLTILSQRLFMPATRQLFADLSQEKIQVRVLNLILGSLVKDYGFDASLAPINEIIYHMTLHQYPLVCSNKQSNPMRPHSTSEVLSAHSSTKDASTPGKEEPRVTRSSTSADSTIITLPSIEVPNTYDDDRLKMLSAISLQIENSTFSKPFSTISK
Method: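 Universal 'all 10-mer' protein binding microarrays (Agilent AMADID 015681) probed with GST-tagged S. cerevisiae TFs (full-length or DBD) made by in vitro transcription/translation (PURExpress), about 100-200 nM. Bound TF was detected with fluorescent anti-GST. Each ungapped 8-mer (which stands for itself and its reverse complement) is scored by the PBM enrichment score (E-score), a modified Wilcoxon-Mann-Whitney statistic from -0.5 to +0.5, computed with the Universal PBM Analysis Suite. Scale: above 0.35 generally sequence-specific binding.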

| Sequence | PBM E-score |
| --- | --- |
| ATTCCATA | -0.0291 |
| GGAGAAAC | -0.0961 |
| TCACCGGA | 0.133 |
| CCCCTTTC | -0.292 |
| CCCCACAC | -0.211 |
| CAAGAGAC | 0.017 |
| ATCGCTGA | 0.0828 |
| CGCGGCGC | -0.213 |
| ACATAGAT | 0.0632 |
| ATGTGATG | -0.0936 |
| ATCAAAGC | -0.0573 |
| ACAGCTGT | 0.0609 |
| TAGCGAAA | 0.0958 |
| TAGCTACA | -0.0289 |
| TCGGCCGA | 0.094 |
| AGCCCAGG | -0.285 |
| TCCAGACA | -0.101 |
| GACTTGTA | 0.25 |
| CCTCCTCA | -0.164 |
| AACTGAGT | 0.304 |
| AATGGTAT | -0.148 |
| AGACACGC | -0.105 |

| Sequence | PBM E-score |
| --- | --- |
| GTAACTCA | 0.277 |
| GAGACGCC | -0.324 |
| ACACTGCG | -0.273 |
| CAAACGGA | -0.103 |
| AAGGAGGG | -0.196 |
| CTACCTCC | 0.0844 |
| AAAGTGCA | 0.0468 |
| AAAAAGGC | 0.0801 |
| ACCCATAC | 0.0154 |
| ACTGCCCT | -0.0556 |
| AATCTCGA | 0.0793 |
| CGTGGCCC | -0.311 |
| CGGATAAG | -0.0616 |
| GGGGTGCA | -0.291 |
| CGACTGCG | 0.167 |
| ACCATATA | 0.0294 |
| ACCAAATG | -0.0502 |
| CGAAACAA | 0.163 |
| ACCCTAGT | 0.0625 |
| GTCATGAC | 0.432 |
| AAGAGCGA | -0.0506 |
| GAAACTCA | 0.223 |

| Sequence | PBM E-score |
| --- | --- |
| GCAATCCA | 0.131 |
| ATTTCGAC | -0.0682 |
| ACCGCTCA | -0.0304 |
| GGGCCCAC | -0.299 |
| CGTCGCTC | -0.159 |
| AATTTGAT | 0.0813 |
| CGGGAGTA | -0.0367 |
| GCAACAGC | -0.317 |
| ACTCGGAA | 0.252 |
| ACAACCGC | 0.0153 |
| TTCAGCAA | -0.00768 |
| CCCCAATC | -0.0356 |
| TATCGGCA | -0.167 |
| ACGCACGG | -0.192 |
| GACTCATC | 0.478 |
| CAGGTGCC | -0.246 |
| ATTCGGTA | 0.0621 |
| AGATGGAC | 0.117 |
| GTCGATAA | 0.00667 |
| ATGGGGGA | -0.339 |
| CAACTTGA | 0.105 |
| AAAGAAGT | 0.14 |

| Sequence | PBM E-score |
| --- | --- |
| ACTGAGCA | 0.106 |
| GAAGATTA | 0.264 |
| AACGAATT | -0.00325 |
| TCATCACA | 0.119 |
| CCAACAAA | -0.069 |
| ACACAGCT | 0.0534 |
| TAGGTGCA | 0.0692 |
| ACAGGAAG | -0.155 |
| GAAGAACA | -0.0498 |
| AAACCTAA | -0.0152 |
| CCCAGCAA | -0.0862 |
| GCTAACCC | -0.0154 |
| GTCAAGGA | 0.0558 |
| CGAGAGGA | -0.0732 |
| ATAGCTAG | -0.164 |
| CGACGGTA | -0.0858 |
| CATTGCAG | 0.0512 |
| GATTTCTA | 0.149 |
| AGTTGACC | 0.0517 |
| CCAGAGAC | 0.0381 |

— the supplement of paper PMC3334620
